Results taken from PMC6029062.
No constants are given. Whether binding was seen depends on the method and setting. For some of these results: In cells and extracts the contact can be indirect. Some binding calls cover weakened binding; strength is not graded here. For some of these results: Tags and fused reporters may be left off the sequences shown. Values belong to the molecule of their own block, whether it stands above or below them.

Chains of the proteins cited; added tags and fusions are not shown. Residues count along the entry.
UniProt P18084, residues 743-799: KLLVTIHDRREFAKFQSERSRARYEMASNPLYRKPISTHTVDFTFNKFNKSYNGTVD
UniProt P18564, residues 731-788: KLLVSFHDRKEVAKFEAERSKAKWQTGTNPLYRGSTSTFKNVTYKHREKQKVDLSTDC
UniProt Q96AC1: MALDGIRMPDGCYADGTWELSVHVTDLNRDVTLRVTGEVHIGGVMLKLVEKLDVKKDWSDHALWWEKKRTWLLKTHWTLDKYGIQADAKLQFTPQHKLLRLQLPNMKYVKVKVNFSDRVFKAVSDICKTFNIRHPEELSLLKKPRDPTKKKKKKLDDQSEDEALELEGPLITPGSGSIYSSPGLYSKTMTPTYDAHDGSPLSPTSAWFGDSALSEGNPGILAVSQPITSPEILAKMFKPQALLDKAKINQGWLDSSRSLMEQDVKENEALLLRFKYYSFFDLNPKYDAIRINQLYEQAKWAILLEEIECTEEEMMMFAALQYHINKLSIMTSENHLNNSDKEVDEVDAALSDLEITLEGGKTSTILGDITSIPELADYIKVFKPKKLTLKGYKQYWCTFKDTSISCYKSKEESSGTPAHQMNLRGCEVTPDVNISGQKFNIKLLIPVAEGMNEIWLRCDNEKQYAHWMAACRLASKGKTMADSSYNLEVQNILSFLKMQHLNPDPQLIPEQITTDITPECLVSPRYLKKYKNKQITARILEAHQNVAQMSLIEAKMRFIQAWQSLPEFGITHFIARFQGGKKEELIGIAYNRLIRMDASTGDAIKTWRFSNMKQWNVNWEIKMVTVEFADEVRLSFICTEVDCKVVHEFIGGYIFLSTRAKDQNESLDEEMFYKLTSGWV

Columns and labels:
GST-fused integrin β2 CT = assay: pull-down; purified GST-fused β CT proteins on Glutathione Sepharose 4B beads, incubated with lysates of HUVECs expressing EGFP-β3-endonexin overnight at 4 °C; Western blotting of the precipitates; only the target purified
GST-fused integrin β7 CT = molecular target: T1, GST-fused integrin β7 CT (UniProt P26010); assay: as above
T1 sequence: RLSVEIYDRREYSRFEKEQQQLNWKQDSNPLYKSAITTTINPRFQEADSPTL

GST-fused integrin β1 CT = assay: as above
GST-fused integrin β5 CT = GST-fused integrin β5 CT (UniProt P18084); assay: as above
GST-fused integrin β6 CT = GST-fused integrin β6 CT (UniProt P18564); assay: as above
[1] = molecular target: kindlin-2 (yeast two-hybrid fusion in pGBKT7) (UniProt Q96AC1); assay: two-hybrid; Matchmaker Gold Yeast Two-hybrid system; β3-endonexin or kindlin-2 in pGBKT7, integrin β CTs in pGADT7; serial dilution on SD-3 selection media (−Leu/−Trp/−His)

- binding [1]: no binding
Molecule: integrin β6 CT (yeast two-hybrid fusion in pGADT7) (from UniProt P18564 731-788) (domain or fragment)

- binding [1]: no binding
Molecule: KALIHLSDLREYRRFEKEKLKSQWNNDNPLFKSATTTVMNPKFAES (domain or fragment) [integrin β2 CT (yeast two-hybrid fusion in pGADT7)]

- binding [1]: binds
B1: integrin β7 CT (yeast two-hybrid fusion in pGADT7) (domain or fragment, UniProt P26010 747-798)
chain: T1 sequence

- binding [1]: binds
Molecule: KLLMIIHDRREFAKFEKEKMNAKWDTGENPIYKSAVTTVVNPKYEGK (domain or fragment) [integrin β1 CT (yeast two-hybrid fusion in pGADT7)]

More lines, now with the values behind:

Molecule: endogenous kindlin-2 (from UniProt Q96AC1 1-680)
- binding (GST-fused integrin β2 CT): no binding
- binding (GST-fused integrin β7 CT): binds
- binding (GST-fused integrin β1 CT): binds
- binding (GST-fused integrin β5 CT): no binding
- binding (GST-fused integrin β6 CT): no binding

Molecule: integrin β5 CT (yeast two-hybrid fusion in pGADT7) (from UniProt P18084 743-799) (domain or fragment)
- binding [1]: no binding
